# Measurements as given in the supplement of paper PMC10126150.
# Sequences with one replicate were seen in a single cluster, so their values are uncertain.
# Tested on: ATP
# Test: switch fluorescence ratio, 500 uM ATP over buffer (Cy3 cluster intensity, sum of 5 cycles each) (fold (ratio)); higher = stronger signal-on switching upon ATP binding; sequences stand for … in TCGTCGGCAGCGTCAGATGTGTATAAGAGACAGTTTTTTTTTTTTTTTTTTTTTTTTT…TC
# Details: aptamer strand: ATP DNA aptamer (quencher-CACCTGGGGGAGTATTGCGGAGGAAGG + anchor), 100 nM annealed; ATP concentration: 500 uM; one replicate
# How it was run: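 Clusters carrying Cy3-labelled switching strands on a modified Illumina MiSeq flow-cell were annealed to 100 nM quencher-labelled ATP aptamer and imaged in selection buffer. They were imaged again after 15 min with 500 uM ATP at 22 °C, over five buffer/ATP cycles with NaOH stripping and re-annealing in between. For each cluster, the fluorescence ratio is the summed Cy3 intensity of the target cycles divided by that of the buffer cycles, averaged per switch-domain sequence. Clusters outside 100-1000 RFU were left out.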
# 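Further: ATP exposure 15 min at 22 °C before imaging.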
row,Sequence,switch fluorescence ratio
1,GCGTATGATG,1.15
2,GTCCTAGCGC,0.941
3,TCTCAAAAGT,0.987
4,GAAGGACTGG,1.11
5,GTTTTGGCAG,0.952
6,ATTCTGACAA,1.07
7,AATTCGATCG,0.977
8,GTTGCAACTA,1.02
9,TAGCAATCTG,1.6
10,TTGCCGGAGT,0.975
11,CAGCCTCCT,1.19
12,GCGGTATGTG,0.987
13,AACTGCTCAG,1.03
14,CGCAGCAGGA,2.51
15,GAGATCCTGT,0.989
16,GATTGCGTC,1.02
17,CACCAATTAT,1.01
18,TTGGATACAA,0.953
19,TTTGAAGTGC,1.41
20,CGGGGCGTTA,1.02
21,TACTTGGCTG,1.12
22,GTTGATTAGA,0.995
23,CTATGTAGTA,1.04
24,ACAATCAAGA,0.988
25,TGGTAATGAT,1.02

row,Sequence,switch fluorescence ratio
1,TGTTGAGGAG,1.01
2,GTTCCCTGTA,1.03
3,AATATACCGA,1.02
4,ACGGTTGTCT,1.08
5,GCTTGATTGT,1.03
6,GTTATAGGGA,1.04
7,GTGGGCCAAT,0.977
8,GAAATTGGTG,1.02
9,TTAGAGTGCG,0.989
10,TCCTGTCG,1.3
11,TATCGCTGT,0.993
12,GTGCCGGCGC,1.04
13,CGGTGAAAGG,0.994
14,AATATTATG,0.965
15,GTGGGCATTG,0.972
16,TATCCTGAAC,1.54
17,TTTAAGTATA,0.973
18,GGCGCTGCAC,1.13
19,ATCAGAGGA,1.04
20,TGCTTACTAT,0.976
21,GACAAGGAGC,0.96
22,CCTGCTCAAG,1.36
23,GTCTACTACC,1.19
24,AAGCGGACCT,1.25
25,CCAGTAAGGG,1.03

row,Sequence,switch fluorescence ratio
1,GTTAATCACA,1.02
2,GCAGTTTTG,0.983
3,AGTACCTCCA,1.08
4,TATGGTACAA,1.13
5,CACGGCGTGG,0.971
6,GGTCCGACT,1.02
7,TGTTATAGAA,0.997
8,CACGAGTGAG,1.01
9,CCTTAAGTGA,1.2
10,CCCGGAATTA,1.62
11,ATGTGTCGGG,0.983
12,GCGGATTCTG,1.02
13,CCAAAGATTT,0.987
14,TTGTGCTTCA,0.986
15,TCAGACCACC,1.13
16,TGCAGTTTGC,1.08
17,CAAGATTATG,1.02
18,ATAGAAACGC,0.973
19,TACTTCGGTG,1.02
20,CTGATTAAAA,0.958
21,TATCCTTTTG,0.992
22,TTACCATGAC,1.15
23,ACCGTCAGCT,1.02
24,CGCGGGTTAC,1.34
25,TAGGGCAAAC,1.46

row,Sequence,switch fluorescence ratio
1,ATTAAACGTC,1.06
2,TAGAAACTAT,1.03
3,ACACTAGTTT,1.01
4,GGCCACGAGG,1.03
5,TGCAAAGTGC,1.06
6,TTACTATTGT,1.01
7,GCGAAACATT,1.04
8,GGCTATCAGC,1.01
9,TTAGATTGCT,0.975
10,ATCCACGGTG,2.38
11,TTCCGGCATG,1.07
12,GCTGGTAAGT,0.991
13,TTTCGGTCGA,0.995
14,CATGCGACTT,1.02
15,CACGTTGTTC,0.989
16,ACTATTCCCC,1.07
17,TGTCCTAGGC,0.918
18,TTATTTTACT,1.04
19,TTAAGCCT,1.16
20,TTCCGCTTGT,1.27
21,TGGTGAGTAA,0.96
22,GGACACAGCT,1.07
23,GCATGATTCA,0.959
24,GTACTTCACT,1.41
25,GTGTGAATAA,0.991
